Assay results: PubChem BioAssay AID588342 (National Center for Advancing Translational Sciences (NCATS), 2011)
The campaign covered roughly 360,000 compounds. About 25,000 (6.9%) were called active. Inconclusive results, whose numbers are uncertain, are shown with a selection of clear calls. Calls follow the shape of the dose curve; as a rule, active = well fitted inhibition curve with a large enough effect; inconclusive = small, poorly fitted or top-dose-only effect; inactive = flat fitted curve, though single readings scatter. Potencies of inconclusive entries are doubtful fits and often do not repeat.

Biological target: Luciferin 4-monooxygenase (Photinus pyralis) (UniProt P08659)
Sequence of UniProt P08659 (P08659 whole entry, looked up): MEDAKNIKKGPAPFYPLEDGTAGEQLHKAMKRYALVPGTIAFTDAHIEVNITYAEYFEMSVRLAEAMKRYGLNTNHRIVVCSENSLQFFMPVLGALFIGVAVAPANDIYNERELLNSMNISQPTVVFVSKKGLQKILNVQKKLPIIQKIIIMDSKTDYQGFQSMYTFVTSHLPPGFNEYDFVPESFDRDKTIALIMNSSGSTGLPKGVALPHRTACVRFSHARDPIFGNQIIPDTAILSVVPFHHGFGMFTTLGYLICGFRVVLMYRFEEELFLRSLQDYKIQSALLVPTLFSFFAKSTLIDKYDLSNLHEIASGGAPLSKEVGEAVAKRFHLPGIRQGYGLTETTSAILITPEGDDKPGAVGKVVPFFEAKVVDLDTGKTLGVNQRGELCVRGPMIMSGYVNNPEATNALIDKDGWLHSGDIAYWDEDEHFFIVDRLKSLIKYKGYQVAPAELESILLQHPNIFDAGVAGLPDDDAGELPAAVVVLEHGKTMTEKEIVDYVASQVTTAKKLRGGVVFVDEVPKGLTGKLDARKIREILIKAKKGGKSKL
Test: qHTS profiling assay for firefly luciferase inhibitor/activator using purifed enzyme and Km concentrations of substrates (counterscreen for miR-21 project); also: nearly all actives have a fitted effect of over 55% in size;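 as to activity change, negative = inhibition: plate controls were vehicle for no effect and reference inhibitor for full effect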
Settings: purified FLuc, luminescence inhibition; activity change, negative = inhibition: at 57.5 µM (top of the series)
How it was run: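 Purified P. pyralis luciferase, 10 nM final, with Km-level 10 uM D-luciferin and 10 uM ATP in 50 mM Tris acetate pH 7.5, 10 mM Mg acetate, 0.01% Tween-20, 0.05% BSA; 6-point qHTS titration about 60 µM downward; luminescence read.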
Potency is read from the fitted curve at half-maximal effect; tags tell the direction and shape of the fitted curve.

SMILES | Potency | activity change, negative = inhibition
Cc1ccc(-c2nc3ccccc3[nH]2)s1 | active: 3.01 µM | 
Cn1ccc(C(=O)Nc2sc3c(c2C#N)CCC3)n1 | inconclusive: 21.3 µM [inhibitor, partial curve] | 
O=C(O)c1ccc(/C=C/C(=O)c2ccc3c(c2)OCCCO3)cc1 | active: 0.0757 µM | 
COc1ccc(C(=O)Nc2cccc(C(=O)OCc3cc(=O)n4nc(C5CC5)sc4n3)c2)cc1 | inconclusive: 10.7 µM [inhibitor, partial curve, poor fit] | 
Cc1cccc(/C=N\NC(=O)c2sccc2-n2cccc2)c1 | inconclusive: 15.1 µM [inhibitor, partial curve] | 
CCOC(=O)c1cnn(-c2nc(-c3cccc(F)c3)cs2)c1C(F)(F)F | inconclusive: 37.9 µM [inhibitor, partial curve, poor fit] | 
Cc1cc(C(=O)NC2CCCc3c2cnn3-c2ccccc2F)nc(C)n1 (stereo unspecified) |  | inactive: -0.861%
Cn1c(=O)oc2cc(C(=O)c3ccccc3)ccc21 | inconclusive: 37.9 µM [inhibitor, single point] | 
Cn1cccc1CNC(=O)Nc1ccc(Cl)cc1 | active: 13.5 µM | 
Cc1cc(C)nc(N/N=C2/CCCC/C2=C\c2ccccc2)n1 |  | inactive: 0.453%
O=C1c2cccc3c(N4CCCCC4)ccc(c23)C(=O)N1CCO | active: 15.1 µM | 
Cc1cc(C)nc(NS(=O)(=O)c2ccc(NC(=O)c3cc(-c4ccccc4)nc4ccccc34)cc2)n1 | inconclusive: 23.9 µM [inhibitor, partial curve, poor fit] | 
O=C(N/N=C/c1sc(=O)n(Cc2ccc(Br)cc2)c1Cl)c1ccco1 |  | inactive: -9.76%
CCC(C)n1c(=O)c2sccc2n2c(CCCC(=O)N3CCN(c4ccccc4)CC3)nnc12 (stereo unspecified) |  | inactive: 4.67%
CC(=O)c1cccc(NC(=O)c2sc3nc4n(c(=O)c3c2C)CCCC4)c1 | inconclusive: 26.9 µM [inhibitor, single point] | 
COc1ccc(CNC(=O)c2sc3nc4n(c(=O)c3c2C)CCCC4)cc1 | inconclusive: 13.5 µM [inhibitor, partial curve, poor fit] | 
Cc1sc2ccccc2[n+]1CC(=O)c1ccccc1 | inconclusive: 37.9 µM [inhibitor, partial curve, poor fit] | 
CCOC(=O)C(=NCCOC)NNc1cc(Cl)ccc1Cl | inconclusive: 26.9 µM [inhibitor, single point] | 
O=C(COc1ccccc1)NC1=NCCS1 | active: 7.57 µM | 
COc1ccccc1-c1cc(C(=O)NCCCn2ccnc2)no1 | inconclusive: 30.1 µM [inhibitor, partial curve, poor fit] | 
COc1ccccc1NC(=O)c1cc2c(=O)n(C)c3ccccc3c2n1C | inconclusive: 15.1 µM [inhibitor, partial curve, poor fit] | 
O=C(NCc1ccccc1)c1cc2ccccc2oc1=O | active: 15.1 µM | 
CCCn1c(C)cc(/C=C(\C#N)C(=O)OCC(=O)NC(=O)NC(C)(C)C)c1C | active: 16.9 µM | 
S=C(c1ccc(-c2cccc(Cl)c2)o1)N1CCCCC1 | active: 2.69 µM | 

SMILES | Potency | activity change, negative = inhibition
CC1CCN(Cc2nc(Cl)c3c4c(sc3n2)CCC4)CC1 | inconclusive: 30.1 µM [inhibitor, partial curve, poor fit] | 
O=C(CSc1nnc(-c2ccc3c(c2)OCO3)o1)Oc1ccccc1 |  | inactive: -2.8%
O=C(COC(=O)c1cc(-c2cccs2)nc2ccccc12)c1ccc(F)cc1 | inconclusive: 7.57 µM [inhibitor, full curve] | 
COc1ccccc1NC(=O)c1ccc(C)c(S(=O)(=O)N2CCCCC2)c1 | inconclusive: 33.8 µM [inhibitor, partial curve, poor fit] | 
COc1ccc(C(=O)OCC(=O)Nc2cccc(C(C)=O)c2)c(OC)c1OC | inconclusive: 37.9 µM [inhibitor, partial curve, poor fit] | 
CC(C)(C)c1ccc(C(=O)Nc2ccc(CC(=O)O)cc2)o1 | active: 4.26 µM | 
CCCCn1nc(CC(=O)NCCN(CC)CC)c2ccccc2c1=O |  | inactive: 0.37%
Cc1ccc(CN(C(=O)c2ccc(C(C)(C)C)cc2)c2ccccn2)o1 | inconclusive: 21.3 µM [inhibitor, partial curve] | 
COc1ccc(-c2noc(COc3ccccc3OC)n2)cc1OC | inconclusive: 21.3 µM [inhibitor, partial curve] | 
CC(C)CC(=O)Nc1ccc2nc(SCC(=O)N3CCc4ccccc43)sc2c1 | inconclusive: 3.01 µM [inhibitor, partial curve, poor fit] | 
COc1ccc(N=Cc2c(O)ccc3ccccc23)cc1 | active: 13.5 µM | 
COc1cccc(/C=C2\CCCCC2=O)c1 | inconclusive: 26.9 µM [inhibitor, single point] | 
CCc1ccc2[nH]cc(S(=O)(=O)c3ccc(C(C)C)cc3)c(=O)c2c1 |  | inactive: -17%
Oc1ccccc1-c1nc(-c2cccs2)c(-c2cccs2)[nH]1 | inconclusive: 21.3 µM [inhibitor, partial curve, poor fit] | 
CC(NC(=O)NC(=O)c1cccc(Cl)c1)c1ccccc1 (stereo unspecified) |  | inactive: 1.76%
CC1CCN(C(=O)COC(=O)c2c[nH]c3ccccc23)CC1 | inconclusive: 19 µM [inhibitor, partial curve] | 
CC1=NN(C(N)=S)C(=O)C1N=Nc1ccccc1 (stereo unspecified) | active: 23.9 µM | 
COc1cc(C(=O)OCC(=O)Nc2cccc(S(=O)(=O)N3CCCC3)c2)ccc1OCC(C)C | inconclusive: 21.3 µM [inhibitor, partial curve] | 
CCn1c(CNC(=O)c2ccccc2OC)nnc1SCC(=O)c1ccc(F)cc1 | inconclusive: 23.9 µM [inhibitor, partial curve, poor fit] | 
Cc1csc2nc(CSc3nncn3-c3ccccc3)c(Br)n12 |  | inactive: 3.55%
Cc1ccc(SCc2ccc(C(=O)N3CCCC3)cc2)cc1 | active: 16.9 µM | 
CCc1cc(=O)oc2c3c(cc(OCC(=O)NCCCC(=O)O)c12)OC(C)(C)CC3 | inconclusive: 37.9 µM [inhibitor, single point] | 
COc1ccc(Nc2nc(-c3sc(C)nc3C)cs2)c(OC)c1 | inconclusive: 23.9 µM [inhibitor, single point] | 
O=C(NNC(=O)c1cccc(S(=O)(=O)N2CCc3ccccc32)c1)c1ccccc1 | inconclusive: 33.8 µM [inhibitor, partial curve, poor fit] | 

SMILES | Potency | activity change, negative = inhibition
CCOC(=O)c1sc(-c2cccc(C(F)(F)F)c2)nc1O |  | inactive: -5.73%
COc1ccc(Nc2nc(C(=O)NCc3ccco3)cs2)cc1 | inconclusive: 19 µM [inhibitor, partial curve] | 
C=CCn1c(SC)nc2sc3c(c2c1=O)CCc1ccccc1-3 | inconclusive: 15.1 µM [inhibitor, partial curve] | 
CCCN1CCN(CCCNC(=O)c2ccc3nc(N4CCC(C)CC4)sc3c2)CC1 | inconclusive: 26.9 µM [inhibitor, single point] | 
CC(=O)c1cnc(Nc2cccc(C)c2)s1 | inconclusive: 16.9 µM [inhibitor, partial curve] | 
O=C1c2ccccc2C(=O)c2cc(NC(=O)C3CC3)ccc21 | inconclusive: 2.39 µM [inhibitor, full curve] | 
COc1ccc(S(=O)(=O)Oc2c(OC)cc(C(=S)N3CCOCC3)cc2OC)cc1 | inconclusive: 37.9 µM [inhibitor, partial curve, poor fit] | 
Cc1ccc(-c2cc(N)nc(-c3ccccc3)c2)cc1 | active: 13.5 µM | 
COc1ccc(N=c2oc3ccc(OC)cc3cc2-c2nc3ccccc3[nH]2)cc1 | inconclusive: 19 µM [inhibitor, partial curve] | 
CC(=O)Oc1ccc2nc(-c3ccc(Br)o3)oc(=O)c2c1 | inconclusive: 10.7 µM [inhibitor, partial curve, poor fit] | 
CCc1c(C)nc(SCC(=O)Nc2ccc3c(c2)OCCO3)[nH]c1=O | inconclusive: 19 µM [inhibitor, partial curve, poor fit] | 
c1ccc2c(c1)[nH]c1nc(SCCN3CCOCC3)nnc12 | inconclusive: 30.1 µM [inhibitor, partial curve, poor fit] | 
COc1cc(/C=N/NC(=O)c2nonc2C)ccc1O | inconclusive: 16.9 µM [inhibitor, partial curve] | 
O=C(NC(=S)NCC1CCCO1)c1ccc(Br)o1 (stereo unspecified) | inconclusive: 26.9 µM [inhibitor, partial curve, poor fit] | 
CCOc1ccc2[nH]c3c(NCCOC)ncnc3c2c1 | inconclusive: 19 µM [inhibitor, partial curve] | 
O=[N+]([O-])c1ccccc1/C=N\N1CCN(c2ccccc2)CC1 | inconclusive: 19 µM [inhibitor, partial curve] | 
N/C(=N\OC(=O)c1ccccc1)c1cccnc1 | active: 5.36 µM | 
C[C@@H]1C[C@H](Nc2ccccc2)c2ccccc2N1C(=O)c1cccnc1 |  | inactive: 23.3%
Cc1cc(=O)oc2c3c(cc(OCC(=O)Nc4ccc(CCO)cc4)c12)OC(C)(C)CC3 | inconclusive: 23.9 µM [inhibitor, partial curve, poor fit] | 
NC(=O)c1ccsc1NC(=O)COC(=O)c1ccccc1F | active: 10.7 µM | 
Oc1ccc(Cl)cc1C=Nc1ccc2c3c(cccc13)CC2 | inconclusive: 10.7 µM [inhibitor, single point] | 
Cc1ccc2c(CSc3nnc(N)s3)cc(=O)oc2c1 | inconclusive: 26.9 µM [inhibitor, partial curve, poor fit] | 
O=C(COC(=O)c1ccccc1Nc1ccccc1F)c1ccccc1 | inconclusive: 10.7 µM [inhibitor, partial curve, poor fit] | 
